In all, about 150,000 compounds went through this assay and about 6,500 (4.3%) were called active. Inconclusive results, whose numbers are uncertain, are shown with a selection of clear calls. Calls follow the shape of the dose curve; as a rule, active = well fitted inhibition curve with a large enough effect (not every such curve was filed as active); inconclusive = small, poorly fitted or top-dose-only effect, or another doubt; inactive = no such curve, though single readings can be large or run the other way. Potencies of inconclusive entries are left out as doubtful fits.
molecular target: 15-hydroxyprostaglandin dehydrogenase [NAD(+)] (Homo sapiens) (UniProt P15428); assay: qHTS Assay for Inhibitors of HPGD (15-Hydroxyprostaglandin Dehydrogenase); conditions: purified HPGD, NADH fluorescence kinetic, PGE2 substrate; activity change, negative = inhibition: stronger effect = lower value
Chain of UniProt P15428 (P15428 whole entry, looked up): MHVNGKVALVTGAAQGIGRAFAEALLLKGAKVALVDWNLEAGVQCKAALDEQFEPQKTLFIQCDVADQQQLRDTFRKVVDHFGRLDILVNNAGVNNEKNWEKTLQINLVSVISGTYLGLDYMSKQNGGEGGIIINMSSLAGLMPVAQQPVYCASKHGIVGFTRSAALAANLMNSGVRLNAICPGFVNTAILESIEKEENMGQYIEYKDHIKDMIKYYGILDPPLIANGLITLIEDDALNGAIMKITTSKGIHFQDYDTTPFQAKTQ
Outline: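 20 nM HPGD preincubated 15 min at room temperature with compound in 50 mM Tris-HCl pH 8, 0.01% Tween 20. Started with 1 mM NAD+ and 30 uM prostaglandin E2; NADH fluorescence (360/450 nm) read 5 times over 30-s intervals, last minus first.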
% is scaled to controls: 0 for no effect and ±100 for the full control effect; potency is read from the fitted curve at half-maximal effect; tags tell the direction and shape of the fitted curve.

Row | SMILES | activity change, negative = inhibition | Potency
1 | CC1CCC/C(=N/NC(=O)c2ccccc2-n2cccc2)C1 (configuration not stated) | inactive: 3.91% | –
2 | CC1CCC(C(C)C)C(OC(=O)C2=C3c4ccccc4S(=O)(=O)N3CC2)C1 (configuration not stated) | – | inconclusive [inhibitor, partial curve]
3 | CCCCCCNc1cc2n(c(=O)n1)CCc1cc(OC)c(OC)cc1-2 | – | inconclusive [inhibitor, partial curve]
4 | COc1ccc(C(C)=O)cc1COC(=O)CNC(=O)c1ccccc1F | – | inconclusive [inhibitor, partial curve]
5 | COc1ccccc1-c1cnnc(N/N=C/c2ccc(-c3cccc(Br)c3)o2)n1 | inactive: -2.84% | –
6 | CC1(C)CC(=O)C=C(NC2CCCCCCC2)C1 | inactive: -11% | –
7 | Nc1ccccc1-c1nnc(-c2ccc(-c3ccccc3)cc2)o1 | – | inconclusive [inhibitor, partial curve]
8 | O=C1C2C(c3ccccc3)=NN(c3ccccc3)C2C(=O)N1c1ccccc1 (configuration not stated) | – | inconclusive [inhibitor, partial curve]
9 | Cc1nc2nc(-c3ccco3)[nH]n2c(=O)c1Cc1ccccc1 | – | inconclusive [inhibitor, partial curve]
10 | CN(C)Cc1ccccc1-c1nccc(NC2CC2)n1 | inactive: -0.739% | –
11 | CCCC(=O)NCCCc1nc2ccccc2[nH]1 | inactive: -4.22% | –
12 | CCCCc1ccc(NC(=S)Nc2cccnc2)cc1 | inactive: -5.04% | –
13 | COc1cc(OC)c(-c2nn3c(-c4ccco4)nnc3s2)cc1OC | – | inconclusive [inhibitor, single point]
14 | CCn1c2ccccc2c2cc(NC(=O)COC(=O)c3cc(OC)c(OC)cc3OC)ccc21 | – | inconclusive [inhibitor, partial curve]
15 | CCCCc1ccc(NC(=O)CC(C)(C)C)cc1 | – | active: 14.1 µM
16 | C=CCNC(=O)c1oc2ccc(S(=O)(=O)N(CC)CC)cc2c1C | – | active: 20 µM
17 | CCC(CC)C(=O)Nc1cc(C)c2c(=O)oc3ccccc3c2n1 | – | inconclusive [inhibitor, partial curve]
18 | COc1ccc(NC(=O)C2CCN(C(=O)c3cccs3)CC2)cc1OC | inactive: -6.07% | –
19 | OC(COc1ccc2ccccc2c1Cl)CN1CCOCC1 (configuration not stated) | – | inconclusive [inhibitor, partial curve]
20 | CCOc1ccc(S(=O)(=O)NCc2ccco2)c2ccccc12 | – | inconclusive [inhibitor, partial curve]
21 | CCCN(CCC)CCCNC(=O)c1cc2cc3ccc(OC)cc3nc2o1 | – | inconclusive [inhibitor, partial curve]
22 | CCCCN(CC)S(=O)(=O)N1CCC(C(=O)NCCCN2CCOCC2)CC1 | – | inconclusive [inhibitor, single point]
23 | COc1ccc(-c2noc(CCC(=O)N3CCC(C)CC3)n2)cc1 | – | active: 5.01 µM
24 | CC(=O)N1CCC2(CCCN(c3ccc(-c4ccccc4)cc3)C2)CC1 | – | inconclusive [inhibitor, partial curve]
25 | N#C/C(=C\c1c(N2CCC(C(N)=O)CC2)nc2ccccn2c1=O)S(=O)(=O)c1ccccc1 | inactive: -23.9% | –
26 | O=C(CSc1nc(-c2ccco2)cc(C(F)(F)F)n1)Nc1ccc(C(=O)N2CCOCC2)cc1 | – | active: 22.4 µM

Row | SMILES | activity change, negative = inhibition | Potency
27 | Cc1cc(=O)n2cc(-c3ccccc3)nc2[nH]1 | – | inconclusive [inhibitor, partial curve]
28 | C=CCc1cc(/C=N\NC(=O)CSc2nnc(CCCc3ccc(OC)c(C)c3)o2)cc(OC)c1O | inactive: -0.665% | –
29 | CCOc1ccc(-n2cnnn2)cc1S(=O)(=O)NC1CC1 | inactive: -19.9% | –
30 | CN1C(=O)c2cccc3c(S(=O)(=O)NCc4ccco4)ccc1c23 | inactive: -15.8% | –
31 | C=CCn1c(COc2ccccc2F)nnc1SCCN1C(=O)c2ccccc2C1=O | inactive: -3.15% | –
32 | Cc1ccc(C(NC(=O)C(C)C)c2cc([N+](=O)[O-])c3cccnc3c2O)cc1 (configuration not stated) | inactive: -15.3% | –
33 | CC(=O)NCCc1ccc(O)c(O)c1 | – | inconclusive [inhibitor, single point]
34 | Cc1cc(C)nc(SCc2nnc(SCc3ccccc3Cl)o2)n1 | – | inconclusive [inhibitor, partial curve, poor fit]
35 | CN1CCN(C(=O)c2ccccc2NC(=O)Cc2ccccc2)CC1 | inactive: -0.137% | –
36 | COc1ccc(N=c2oc3cc(O)ccc3cc2C(=O)NCC2CCCO2)c(OC)c1 (configuration not stated) | – | inconclusive [inhibitor, partial curve]
37 | CC1=CC2C(=O)c3cccc(O)c3C(=O)C2C(O)=C1 (configuration not stated) | inactive: -13.3% | –
38 | CCn1cc(C(=O)N2CCc3ccccc32)c(=O)c2cc(S(=O)(=O)N(C)C3CCCCC3)ccc21 | inactive: -0.392% | –
39 | c1ccc(Nc2n[nH]nc2-c2ccccc2)cc1 | – | active: 14.1 µM
40 | CSc1nc(-c2ccco2)nn1C(=O)c1ccc(C)cc1 | – | inconclusive [inhibitor, partial curve]
41 | O=C(Cc1ccccc1[N+](=O)[O-])NCc1ccc2c(c1)OCO2 | inactive: -7.55% | –
42 | CCC1SC2=NC(C)=C(C(=O)OCC(C)C)C(/C=C/c3ccccc3OC)N2C1=O (configuration not stated) | inactive: -23.5% | –
43 | O=C1S/C(=C\c2ccc(N3CCOCC3)o2)C(=O)N1Cc1ccc(F)cc1 | – | inconclusive [inhibitor, single point]
44 | O=C(COc1ccc2ccc(=O)oc2c1)Nc1ccc2c(c1)OCCO2 | – | inconclusive [inhibitor, partial curve]
45 | CC(C)CCNC(=O)CCCOc1ccccc1 | – | inconclusive [inhibitor, partial curve, poor fit]
46 | O=C(CCCOc1ccc(Cl)cc1)NCC1CCCO1 (configuration not stated) | – | active: 14.1 µM
47 | Cc1c(C(=O)OCC(=O)c2ccc3c(c2)OCCO3)oc2ccccc12 | inactive: -11.2% | –
48 | CC1=C/C(=N\OS(=O)(=O)c2ccccc2)C(C(C)C)=CC1=O | inactive: -13.8% | –
49 | CC(C)(C)c1nnc2sc(SC/C(O)=C(\C#N)c3nc4ccccc4[nH]3)nn2c1=O | – | active: 20 µM
50 | Cc1ccccc1-c1nn2c(-c3ccccc3)nnc2s1 | – | active: 28.2 µM
51 | COc1ccc(C2(O)CC3CCC(C2)N3c2nc(C)cc(C)c2C#N)cc1 (configuration not stated) | – | inconclusive [inhibitor, partial curve]
52 | COc1ccc(-c2c[n+]3c4n2CCCCC4=C(c2ccccc2)C3)cc1 | – | inconclusive [inhibitor, partial curve]

Row | SMILES | activity change, negative = inhibition | Potency
53 | COc1ccc(-n2c(=O)c(-c3cccs3)nc3cnc(N4CCNCC4)nc32)cc1 | – | inconclusive [inhibitor, partial curve]
54 | CCn1c(C(=O)N2CCc3ccccc3C2)cc2sccc21 | – | active: 3.16 µM
55 | COc1ccc(C(CNC(=O)c2cccc(Br)c2)N2CCCC2)cc1 (configuration not stated) | inactive: -9.52% | –
56 | CCn1c(N)c(C(N)=O)sc1=S | – | inconclusive [inhibitor, single point]
57 | CCc1ccc(Nc2nnc(SCC(=O)Nc3cccc(S(=O)(=O)NC4=NCCCCC4)c3)s2)cc1 | – | inconclusive [inhibitor, single point]
58 | C/C(=C\c1ccc(Cl)cc1)C(C)(C)C(=O)O | inactive: -6.75% | –
59 | CCN(CC)CCCC(C)n1c(-c2ccccc2)nc2c(NCCOC)nc(C)nc21 (configuration not stated) | – | inconclusive [inhibitor, partial curve]
60 | Cc1ccccc1NC(=O)Cn1cccc1 | – | active: 31.6 µM
61 | O=c1[nH]c(CN2CCN(c3ccccc3Cl)CC2)nc2ccsc12 | inactive: -4.05% | –
62 | CCSC1=C(C#N)C2(CCCCC2)C(C#N)=C(N)N1 | inactive: -2.82% | –
63 | O=C(CCS(=O)(=O)c1ccc(Br)cc1)Nc1ccc2c(c1)OCO2 | inactive: -7.06% | –
64 | C=CCOc1ccc2c(OC)c3ccoc3nc2c1OC | – | inconclusive [inhibitor, partial curve]
65 | CC(C)CSc1nc2c(c(=O)[nH]c(=O)n2C)n1CC(O)COc1cccc2ccccc12 (configuration not stated) | – | active: 12.6 µM
66 | CCn1c(SCC(=O)Nc2cc(C)on2)nnc1-c1ccco1 | inactive: -6.49% | –
67 | CCC(=O)Nc1nnc(-c2ccncc2)s1 | – | inconclusive [inhibitor, partial curve]
68 | O=c1c2ccccc2nc2n1CCN2 | – | inconclusive [inhibitor, partial curve]
69 | O=C(O)c1cccc(N2C(=O)C3CC=C(Cl)CC3C2=O)c1 (configuration not stated) | inactive: -8.09% | –
70 | Cn1cccc1C(=O)N1CCC[C@@]2(CCN(c3ccccc3)C2)C1 | inactive: -11.1% | –
71 | O=C(Cc1cccc2ccccc12)Nc1ccc2oc(-c3ccccc3)nc2c1 | – | inconclusive [inhibitor, partial curve]
72 | Cc1ccc(-c2nn3c(C)nnc3s2)cc1NC(=O)c1cccs1 | – | inconclusive [inhibitor, partial curve]
73 | COc1ccc(NC(=S)Nc2ccc(N)c([N+](=O)[O-])c2)cc1 | – | inconclusive [inhibitor, partial curve]
74 | CC(=O)Nc1ccc(S(=O)(=O)N2CCOCC2)cc1 | inactive: 2.1% | –
75 | CCOC(=O)c1c(/N=C/N(C)C)sc(/C=N/Nc2ccccc2)c1-c1ccccc1 | inactive: -6.38% | –
76 | Cc1ccccc1NC(=O)c1cnc2ccccn2c1=O | – | inconclusive [inhibitor, single point]
77 | Cc1cc(Cl)nc(NC(=O)CSc2ccc(Cl)cc2)n1 | inactive: 0.372% | –

— PubChem BioAssay AID894 (National Center for Advancing Translational Sciences (NCATS), 2007)
